Consider 24 compounds from PMC4336329 (PLoS ONE, 2015).

In all, about 310,000 compounds went through this assay and about 2,200 (0.71%) showed an effect of 50% or more. Effects have a minus sign here. Some of the results follow.

For this experiment, the target named is human ether-à-go-go-related gene (hERG) potassium channel (human, UniProt Q12809). Put plainly: primary screen, population patch clamp on CHO cells stably expressing hERG.
Chain of human ether-à-go-go-related gene (hERG) potassium channel (Q12809 whole entry, looked up): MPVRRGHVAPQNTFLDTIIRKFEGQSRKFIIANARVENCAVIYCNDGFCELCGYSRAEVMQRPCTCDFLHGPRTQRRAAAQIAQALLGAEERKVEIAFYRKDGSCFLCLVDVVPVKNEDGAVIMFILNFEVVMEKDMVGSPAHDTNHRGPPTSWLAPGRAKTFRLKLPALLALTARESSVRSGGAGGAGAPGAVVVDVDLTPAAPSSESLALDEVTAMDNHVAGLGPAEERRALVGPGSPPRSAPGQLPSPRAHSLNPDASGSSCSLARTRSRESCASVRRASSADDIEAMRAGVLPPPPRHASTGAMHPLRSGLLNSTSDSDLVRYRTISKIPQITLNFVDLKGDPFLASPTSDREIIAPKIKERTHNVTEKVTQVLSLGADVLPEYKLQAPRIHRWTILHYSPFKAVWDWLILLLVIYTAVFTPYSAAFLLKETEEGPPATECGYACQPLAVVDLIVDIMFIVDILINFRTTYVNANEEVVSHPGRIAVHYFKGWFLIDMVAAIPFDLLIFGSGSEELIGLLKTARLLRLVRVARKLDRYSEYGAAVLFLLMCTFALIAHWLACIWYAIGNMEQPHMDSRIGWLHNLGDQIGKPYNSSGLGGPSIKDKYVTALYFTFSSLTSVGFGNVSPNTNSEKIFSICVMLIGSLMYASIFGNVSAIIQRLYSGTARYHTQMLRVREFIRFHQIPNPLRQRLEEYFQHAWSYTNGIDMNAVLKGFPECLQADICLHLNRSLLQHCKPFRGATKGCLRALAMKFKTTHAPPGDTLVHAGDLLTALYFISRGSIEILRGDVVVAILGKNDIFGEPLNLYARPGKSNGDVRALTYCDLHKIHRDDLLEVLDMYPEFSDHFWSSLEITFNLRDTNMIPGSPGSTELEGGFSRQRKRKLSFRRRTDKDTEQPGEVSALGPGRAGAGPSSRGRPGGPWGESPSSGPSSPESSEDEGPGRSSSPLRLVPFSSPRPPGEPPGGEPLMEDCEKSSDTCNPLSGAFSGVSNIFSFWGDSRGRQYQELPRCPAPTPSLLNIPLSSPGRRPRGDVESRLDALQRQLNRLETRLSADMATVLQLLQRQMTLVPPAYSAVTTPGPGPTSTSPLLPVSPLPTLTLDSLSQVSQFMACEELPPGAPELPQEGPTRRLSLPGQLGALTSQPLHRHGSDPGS
Turning to `CNC(=O)c1cccn(Cc2cccc(C(F)(F)F)c2)c1=O`, the “hERG current change (%, negative = inhibition) at 1uM” value is 12.1%.

Take `CCn1c(SCC(=O)N/N=C/c2c[nH]c3ccccc23)nnc1-c1ccc(Cl)cc1`: the “hERG current change (%, negative = inhibition) at 1uM” value is reported as 4.45%. Take `O=C(N/N=C1\CC(c2ccccc2)Oc2ccccc21)c1ccccn1` (stereo not drawn): the “hERG current change (%, negative = inhibition) at 1uM” value is 11%. For `Cc1nc2c(-c3ccc(F)cc3)cnn2c(N)c1-c1ccccc1`, the “hERG current change (%, negative = inhibition) at 1uM” value was found to be 16%. For `O=C(Nc1ccccc1Cl)C1C2CCC3C(CCC21)C3(Cl)Cl` (stereo not drawn), the “hERG current change (%, negative = inhibition) at 1uM” value is listed as 10.9%. The result for `COc1cccc(OC)c1C(=O)Nc1ccc(NC(=O)c2ccco2)cc1` reads 8.51%. The result for `CCOCCOC(=O)COC(=O)c1ccccc1NC(=O)c1ccccc1` reads 10.7%; that for `COc1ccc(C2C=C(Nc3ccccc3)C(=O)N2c2ccccc2)cc1OC` (stereo not drawn), 20.1%; that for `Cc1cc(N2CCOCC2)nc(SCc2c(Cl)cccc2Cl)n1`, 1.88%. The result for `COc1ccc(/C=N\n2nnc3ccccc32)cc1` reads 7.28%; that for `Cc1ccc(-n2c(C)cc(C3N=C(N)Nc4nc5ccccc5n43)c2C)c(C)c1` (stereo not drawn), 1.8%. As to `O=C(COc1ccc(Cl)cc1)Nc1c(-c2cccs2)nc2ccccn12`, the “hERG current change (%, negative = inhibition) at 1uM” value is on record as 9.44%. As for `Cc1cc(N/N=C/c2ccccc2Br)nc2ccccc12`, the “hERG current change (%, negative = inhibition) at 1uM” value is listed as 14.7%. With `C=C(C)CSc1nc2ccccc2c(=O)n1-c1c(C)n(C)n(-c2ccccc2)c1=O`, the “hERG current change (%, negative = inhibition) at 1uM” value is 13.7%. The result for `CC(NC(=O)Cc1ccc(S(=O)(=O)N2CCOCC2)s1)c1ccc(Cl)cc1Cl` (stereo not drawn) reads 17.2%. The result for `CCOc1ccc2oc(C(=O)OCC(=O)N3CC(C)OC(C)C3)c(C)c2c1` (stereo not drawn) reads 14.4%. Then `COC(=O)c1ccc(-n2nnnc2SCC(=O)NCc2cccc(C(=O)O)c2)cc1`, with 7.96%. Take `Cc1ccc(NC(=O)CSc2ccc(C(N)=O)cc2[N+](=O)[O-])cc1C`: the “hERG current change (%, negative = inhibition) at 1uM” value is given as 11.1%. The result for `CCN(CC)CCn1c(/N=C/c2ccc(OC)c(OC)c2)nc2ccccc21` reads -11.1%.

Regarding `CCN(CC)C(=O)CC(c1ccc(OC)cc1)c1c(OC)cc(OC)c2ccc(=O)oc12` (stereo not drawn), the “hERG current change (%, negative = inhibition) at 1uM” value is on record as 11.6%. Then `COC(=O)CN(c1ccccc1)S(=O)(=O)c1ccc(F)cc1`, with 15.7%; and `CCN(CC)c1ccc(NC(=O)CSc2n[nH]c(-c3ccco3)n2)cc1`, with 0.0263%. Consider `OCCC1CN(Cc2cccc3nccnc23)CCN1Cc1ccc(F)c(F)c1` (stereo not drawn), for which the “hERG current change (%, negative = inhibition) at 1uM” value is recorded as -11.8%. Take `CC(C)Oc1ccc(CN2CCCC(CO)(Cc3ccccc3)C2)cc1CO` (stereo not drawn): the “hERG current change (%, negative = inhibition) at 1uM” value is on record as 3.6%.
